# The supplement of paper PMC12355420
# Where a name gives a salt, the structure may show the parent alone. Some of the results follow. Single values are uncertain, as repeats are few or missing.
# Test system: HeLa VPS33A reporter cells
# Experiment: relative cell viability (CellMask signal) vs DMSO (fraction of DMSO); HeLa model of a glycosaminoglycan (GAG) storage disease; KI is knock-in and KO knock-out; SDC1 is syndecan 1; higher = less cytotoxic
# Conditions: 50 µM; 24 h
# 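Also: primary screen of an FDA-approved drug library in HeLa reporter cells in 96-well format, CellMask signal normalized to DMSO-treated wells set as 1, under 0.5 deemed highly cytotoxic.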
row,Structure (SMILES),relative cell viability
1,CCS(=O)(=O)N1CC(CC#N)(n2cc(-c3ncnc4[nH]ccc34)cn2)C1 [Baricitinib phosphate],0.178
2,COc1ccc2cc1Oc1ccc(cc1)C[C@H]1c3c(cc4c(c3Oc3cc5c(cc3OC)CCN(C)[C@@H]5C2)OCO4)CCN1C [Cepharanthine],0.0048
3,CC[C@H](C)C[C@H](C)CCCCCCCCC(=O)N[C@H]1C[C@@H](O)[C@@H](NCCN)NC(=O)[C@@H]2[C@@H](O)CCN2C(=O)[C@H]([C@H](O)CCN)NC(=O)[C@H]([C@H](O)[C@@H](O)c2ccc(O)cc2)NC(=O)[C@@H]2C[C@@H](O)CN2C(=O)[C@H]([C@@H](C)O)NC1=O [Caspofungin],0.0135
4,CCN(CCO)CCCOc1ccc2c(Nc3cc(CC(=O)Nc4cccc(F)c4)[nH]n3)ncnc2c1 [Barasertib (AZD1152-HQPA)],0.0146
5,CN(C)CC/C=C1/c2ccccc2Sc2ccc(Cl)cc21 [Chlorprothixene (hydrochloride)],0.00507
6,O=C(c1ccc(F)c(F)c1Nc1ccc(I)cc1F)N1CC(O)([C@@H]2CCCCN2)C1 [Cobimetinib],0.00693
7,COc1ncc(-c2ccc3nccc(-c4ccnnc4)c3c2)cc1NS(=O)(=O)c1ccc(F)cc1F,0.00953
8,OCCN1CCN(CCCN2c3ccccc3Sc3ccc(Cl)cc32)CC1 [Perphenazine],0.00482
9,C=C(NC(=O)C(=C)NC(=O)c1csc(C2=N[C@@H]3c4csc(n4)[C@H]4NC(=O)c5csc(n5)[C@H]([C@](C)(O)[C@@H](C)O)NC(=O)[C@H]5CSC(=N5)/C(=C/C)NC(=O)[C@H]([C@@H](C)O)NC(=O)c5csc(n5)[C@]3(CC2)NC(=O)[C@H](C)NC(=O)C(=C)NC(=O)[C@H](C)NC(=O)[C@H]([C@@H](C)CC)N[C@@H]2C=Cc3c([C@H](C)O)cc(nc3[C@H]2O)C(=O)O[C@@H]4C)n1)C(N)=O [Thiostrepton],0.0194
10,CN[C@H]1CC[C@@H](c2ccc(Cl)c(Cl)c2)c2ccccc21 [Sertraline HCl],0.00569
11,C=CC[C@@H]1/C=C(\C)C[C@H](C)C[C@H](OC)[C@H]2O[C@@](O)(C(=O)C(=O)N3CCCC[C@H]3C(=O)O[C@H](/C(C)=C/[C@@H]3CC[C@@H](O)[C@H](OC)C3)[C@H](C)[C@@H](O)CC1=O)[C@H](C)C[C@@H]2OC [Tacrolimus (FK506)],0.00686
